In patent US20200325209A1 (CSL, published 2020):

Tests used:
[1] = biological target: T1, human neonatal Fc receptor FcRn/β2m, soluble recombinant (human, UniProt P55899 fragment; P61769 fragment, alexa-488 label (Examples 2-4); minimal chemical biotinylation with Sulfo-NHS-LC-LC-Biotin (Examples 5-6)); assay: flow cytometry, labelled FcRn on CHO-displayed HSA, pH 7.4
T1 construct: Heterodimer; extracellular domain is inferred; also called hFcRn/β2M; hsFcRn

[2] = biological target: T1, human neonatal Fc receptor FcRn/β2m, …; assay: flow cytometry, labelled FcRn on CHO-displayed HSA, pH 5.5
[3] = biological target: T1, human neonatal Fc receptor FcRn/β2m, …; assay: flow cytometry, labelled FcRn on CHO-displayed HSA, pH 7.3
Description: (§1) Background fluorescence due to non-specific binding of the labelled FcRn to the cells was subtracted from the value obtained.

[4] = biological target: T1, human neonatal Fc receptor FcRn/β2m, …; assay: flow cytometry, labelled FcRn on CHO-displayed HSA, pH 5.4
Description: as §1

[5] = biological target: T1, human neonatal Fc receptor FcRn/β2m, …; assay: flow cytometry, labelled FcRn on CHO-displayed HSA, pH 7.4; remark: listed apart in the source
[6] = biological target: T1, human neonatal Fc receptor FcRn/β2m, …; assay: flow cytometry, labelled FcRn on CHO-displayed HSA, pH 5.5; remark: listed apart in the source

T1 sequence (P55899 24-297 limits assumed, chain 1 of 2): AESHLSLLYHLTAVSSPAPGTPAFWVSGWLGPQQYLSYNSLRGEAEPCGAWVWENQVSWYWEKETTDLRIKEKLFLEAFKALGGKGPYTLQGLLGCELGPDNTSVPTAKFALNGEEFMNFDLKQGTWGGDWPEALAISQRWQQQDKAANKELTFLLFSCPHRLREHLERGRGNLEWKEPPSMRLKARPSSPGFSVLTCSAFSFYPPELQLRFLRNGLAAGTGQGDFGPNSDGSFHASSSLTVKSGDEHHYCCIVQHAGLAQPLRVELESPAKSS
T1 sequence (P61769 21-119 limits assumed, chain 2 of 2, further chain): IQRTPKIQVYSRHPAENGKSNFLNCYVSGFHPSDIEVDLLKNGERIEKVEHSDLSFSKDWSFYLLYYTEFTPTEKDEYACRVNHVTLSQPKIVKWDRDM

B1: HSA [Q522L/A552V/G572R/K573Y], membrane-tethered on CHO cells (other)
chain: DAHKSEVAHRFKDLGEENFKALVLIAFAQYLQQCPFEDHVKLVNEVTEFAKTCVADESAENCDKSLHTLFGDKLCTVATLRETYGEMADCCAKQEPERNECFLQHKDDNPNLPRLVRPEVDVMCTAFHDNEETFLKKYLYEIARRHPYFYAPELLFFAKRYKAAFTECCQAADKAACLLPKLDELR[gap - about 200 residues]NLIKQNCELFEQLGEYKFQNALLVRYTKKVPQVSTPTLVEVSRNLGKVGSKCCKHPEAKRMPCAEDYLSVVLNQLCVLHEKTPVSDRVTKCCTESLVNRRPCFSALEVDETYVPKEFNAETFTFHADICTLSEKERLIKKQTALVELVKHKPKATKEQLKAVMDDFVAFVEKCCKADDKETCFAEERYKLVAASQAALGL
notes: also called quadruple HSA variant; not shown: Myc tag and PDGFR transmembrane domain
fold change to WT [1]: 8.3 fold | mean geoMFI [1]: 329 | fold change to WT [2]: 440 fold | mean geoMFI [2]: 70100

B2: HSA [Q522L/A552V/K573Y], membrane-tethered on CHO cells (other)
chain: DAHKSEVAHRFKDLGEENFKALVLIAFAQYLQQCPFEDHVKLVNEVTEFAKTCVADESAENCDKSLHTLFGDKLCTVATLRETYGEMADCCAKQEPERNECFLQHKDDNPNLPRLVRPEVDVMCTAFHDNEETFLKKYLYEIARRHPYFYAPELLFFAKRYKAAFTECCQAADKAACLLPKLDELR[gap - about 200 residues]NLIKQNCELFEQLGEYKFQNALLVRYTKKVPQVSTPTLVEVSRNLGKVGSKCCKHPEAKRMPCAEDYLSVVLNQLCVLHEKTPVSDRVTKCCTESLVNRRPCFSALEVDETYVPKEFNAETFTFHADICTLSEKERLIKKQTALVELVKHKPKATKEQLKAVMDDFVAFVEKCCKADDKETCFAEEGYKLVAASQAALGL
notes: not shown: Myc tag and PDGFR transmembrane domain
fold change to WT [1]: 0.8 fold | mean geoMFI [1]: 31.9 | fold change to WT [2]: 651 fold | mean geoMFI [2]: 104000

B3: HSA [T133I/Q522L/A552V/G572R], membrane-tethered on CHO cells (other)
chain: DAHKSEVAHRFKDLGEENFKALVLIAFAQYLQQCPFEDHVKLVNEVTEFAKTCVADESAENCDKSLHTLFGDKLCTVATLRETYGEMADCCAKQEPERNECFLQHKDDNPNLPRLVRPEVDVMCTAFHDNEEIFLKKYLYEIARRHPYFYAPELLFFAKRYKAAFTECCQAADKAACLLPKLDELR[gap - about 200 residues]NLIKQNCELFEQLGEYKFQNALLVRYTKKVPQVSTPTLVEVSRNLGKVGSKCCKHPEAKRMPCAEDYLSVVLNQLCVLHEKTPVSDRVTKCCTESLVNRRPCFSALEVDETYVPKEFNAETFTFHADICTLSEKERLIKKQTALVELVKHKPKATKEQLKAVMDDFVAFVEKCCKADDKETCFAEERKKLVAASQAALGL
notes: as for B2
fold change to WT [3]: 3.3 fold | geoMFI [3]: 53.8 | fold change to WT [4]: 22.6 fold | geoMFI [4]: 37800

B4: HSA [Q522L/A552V/G572R], membrane-tethered on CHO cells (other)
chain: DAHKSEVAHRFKDLGEENFKALVLIAFAQYLQQCPFEDHVKLVNEVTEFAKTCVADESAENCDKSLHTLFGDKLCTVATLRETYGEMADCCAKQEPERNECFLQHKDDNPNLPRLVRPEVDVMCTAFHDNEETFLKKYLYEIARRHPYFYAPELLFFAKRYKAAFTECCQAADKAACLLPKLDELR[gap - about 200 residues]NLIKQNCELFEQLGEYKFQNALLVRYTKKVPQVSTPTLVEVSRNLGKVGSKCCKHPEAKRMPCAEDYLSVVLNQLCVLHEKTPVSDRVTKCCTESLVNRRPCFSALEVDETYVPKEFNAETFTFHADICTLSEKERLIKKQTALVELVKHKPKATKEQLKAVMDDFVAFVEKCCKADDKETCFAEERKKLVAASQAALGL
notes: also called Q522L/A522V/G572R; not shown: Myc tag and PDGFR transmembrane domain
fold change to WT [5]: 1.18 fold | mean geoMFI [5]: 46.8 | fold change to WT [1]: 1.18 fold | mean geoMFI [1]: 46.8 | fold change to WT [2]: 409 fold | mean geoMFI [2]: 65200 | fold change to WT [6]: 409 fold | mean geoMFI [6]: 65200

B5: HSA [Q522L/G572R/K573Y], membrane-tethered on CHO cells (other)
chain: DAHKSEVAHRFKDLGEENFKALVLIAFAQYLQQCPFEDHVKLVNEVTEFAKTCVADESAENCDKSLHTLFGDKLCTVATLRETYGEMADCCAKQEPERNECFLQHKDDNPNLPRLVRPEVDVMCTAFHDNEETFLKKYLYEIARRHPYFYAPELLFFAKRYKAAFTECCQAADKAACLLPKLDELR[gap - about 200 residues]NLIKQNCELFEQLGEYKFQNALLVRYTKKVPQVSTPTLVEVSRNLGKVGSKCCKHPEAKRMPCAEDYLSVVLNQLCVLHEKTPVSDRVTKCCTESLVNRRPCFSALEVDETYVPKEFNAETFTFHADICTLSEKERLIKKQTALVELVKHKPKATKEQLKAVMDDFAAFVEKCCKADDKETCFAEERYKLVAASQAALGL
notes: as for B2
fold change to WT [1]: 4.9 fold | mean geoMFI [1]: 194 | fold change to WT [2]: 394 fold | mean geoMFI [2]: 62800
